Results are given in words; binding and its absence hold for the method and conditions named. In cells and extracts the contact can be indirect. Some binding calls cover weakened binding; strength is not graded here. Tags and fused reporters may be left off the sequences shown.
T1: full-length FLAG-RASSF4 (human) (UniProt Q9H2L5)
T1 sequence: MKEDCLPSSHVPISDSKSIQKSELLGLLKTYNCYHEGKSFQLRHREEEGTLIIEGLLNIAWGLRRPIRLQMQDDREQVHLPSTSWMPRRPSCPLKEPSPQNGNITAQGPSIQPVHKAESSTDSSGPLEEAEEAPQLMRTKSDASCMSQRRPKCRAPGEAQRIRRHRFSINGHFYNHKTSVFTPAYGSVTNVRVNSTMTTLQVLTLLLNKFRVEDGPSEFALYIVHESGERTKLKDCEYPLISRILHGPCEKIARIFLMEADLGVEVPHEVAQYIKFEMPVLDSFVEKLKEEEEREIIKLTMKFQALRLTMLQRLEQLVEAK

T2: full-length FLAG-tagged RASSF5 (human) (UniProt Q8WWW0)
T2 sequence: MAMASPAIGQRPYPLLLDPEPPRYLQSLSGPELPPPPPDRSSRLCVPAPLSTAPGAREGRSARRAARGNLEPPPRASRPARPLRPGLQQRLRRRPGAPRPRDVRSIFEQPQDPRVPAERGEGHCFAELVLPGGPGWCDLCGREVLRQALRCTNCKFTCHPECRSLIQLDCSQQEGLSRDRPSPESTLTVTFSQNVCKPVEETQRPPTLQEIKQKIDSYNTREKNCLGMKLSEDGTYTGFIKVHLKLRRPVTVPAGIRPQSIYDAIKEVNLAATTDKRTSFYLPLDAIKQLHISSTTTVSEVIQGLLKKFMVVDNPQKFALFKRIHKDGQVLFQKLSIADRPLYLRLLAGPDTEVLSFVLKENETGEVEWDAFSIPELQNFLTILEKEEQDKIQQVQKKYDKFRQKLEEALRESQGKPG

T3: full-length FLAG-RASSF8 (human) (UniProt Q8NHQ8)
T3 sequence: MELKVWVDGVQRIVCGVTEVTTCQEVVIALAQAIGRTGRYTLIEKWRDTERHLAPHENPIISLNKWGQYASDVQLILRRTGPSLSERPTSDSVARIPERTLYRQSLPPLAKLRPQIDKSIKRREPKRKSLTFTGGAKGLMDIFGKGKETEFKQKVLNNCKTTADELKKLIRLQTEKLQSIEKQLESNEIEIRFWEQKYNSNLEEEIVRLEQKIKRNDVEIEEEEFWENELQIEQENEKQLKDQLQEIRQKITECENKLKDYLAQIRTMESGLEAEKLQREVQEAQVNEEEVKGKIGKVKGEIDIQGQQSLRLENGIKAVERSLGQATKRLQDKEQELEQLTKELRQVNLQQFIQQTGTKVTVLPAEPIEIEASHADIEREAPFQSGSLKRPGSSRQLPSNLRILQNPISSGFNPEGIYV

T4: full-length FLAG-RASSF3 (human) (UniProt Q86WH2)
T4 sequence: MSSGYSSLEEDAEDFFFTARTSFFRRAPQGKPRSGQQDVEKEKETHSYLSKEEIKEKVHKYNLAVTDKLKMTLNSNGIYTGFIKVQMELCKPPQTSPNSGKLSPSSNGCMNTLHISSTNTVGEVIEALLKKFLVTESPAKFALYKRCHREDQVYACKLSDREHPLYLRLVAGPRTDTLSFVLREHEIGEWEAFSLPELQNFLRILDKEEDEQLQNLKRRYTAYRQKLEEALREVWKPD

B1: VENUS-tagged MIRO1-cGTPase (410-585) (domain or fragment, UniProt Q8IXI2 410-585)
chain: QKKQTQRNVFRCNVIGVKNCGKSGVLQALLGRNLMRQKKIREDHKSYYAINTVYVYGQEKYLLLHDISESEFLTEAEIICDVVCLVYDVSNPKSFEYCARIFKQHFMDSRIPCLIVAAKSDLHEVKQEYSISPTDFCRKHKMPPPQAFTCNTADAPSKDIFVKLTTMAMYPHVTQA
B2: VENUS-RRAS2-G23V (protein, UniProt P62070 1-204)
chain: MAAAGWRDGSGQEKYRLVVVGGVGVGKSALTIQFIQSYFVTDYDPTIEDSYTKQCVIDDRAARLDILDTAGQEEFGAMREQYMRTGEGFLLVFSVTDRGSFEEIYKFQRQILRVKDRDEFPMILIGNKADLDHQRQVTQEEGQQLARQLKVTYMEASAKIRMNVDQAFHELVRVIRKFQEQECPPSPEPTRKEKDKKGCHCVIF
B3: VENUS-RAP2B-G12V (protein, UniProt P61225 1-183)
chain: MREYKVVVLGSVGVGKSALTVQFVTGSFIEKYDPTIEDFYRKEIEVDSSPSVLEILDTAGTEQFASMRDLYIKNGQGFILVYSLVNQQSFQDIKPMRDQIIRVKRYERVPMILVGNKVDLEGEREVSYGEGKALAEEWSCPFMETSAKNKASVDELFAEIVRQMNYAAQPNGDEGCCSACVIL
B4: VENUS-RAP2C-G12V (protein, UniProt Q9Y3L5 1-183)
chain: MREYKVVVLGSVGVGKSALTVQFVTGTFIEKYDPTIEDFYRKEIEVDSSPSVLEILDTAGTEQFASMRDLYIKNGQGFILVYSLVNQQSFQDIKPMRDQIVRVKRYEKVPLILVGNKVDLEPEREVMSSEGRALAQEWGCPFMETSAKSKSMVDELFAEIVRQMNYSSLPEKQDQCCTTCVVQ
B5: VENUS-RIT2-G29V (protein, UniProt Q99578 1-217)
chain: MEVENEASCSPGSASGGSREYKVVMLGAVGVGKSAMTMQFISHQFPDYHDPTIEDAYKTQVRIDNEPAYLDILDTAGQAEFTAMREQYMRGGEGFIICYSVTDRQSFQEAAKFKELIFQVRHTYEIPLVLVGNKIDLEQFRQVSTEEGLSLAQEYNCGFFETSAALRFCIDDAFHGLVREIRKKESMPSLMEKKLKRKDSLWKKLKGSLKKKRENMT
B6: VENUS-tagged RHOBTB1 (wild-type) (protein, UniProt O94844 1-696)
chain: MDADMDYERPNVETIKCVVVGDNAVGKTRLICARACNTTLTQYQLLATHVPTVWAIDQYRVCQEVLERSRDVVDEVSVSLRLWDTFGDHHKDRRFAYGRSDVVVLCFSIANPNSLNHVKSMWYPEIKHFCPRTPVILVGCQLDLRYADLEAVNRARRPLARPIKRGDILPPEKGREVAKELGLPYYETSVFDQFGIKDVFDNAIRAALISRRHLQFWKSHLKKVQKPLLQAPFLPPKAPPPVIKIPECPSMGTNEAACLLDNPLCADVLFILQDQEHIFAHRIYLATSSSKFYDLFLMECEESPNGSEGACEKEKQSRDFQGRILSVDPEEEREEGPPRIPQADQWKSSNKSLVEALGLEAEGAVPETQTLTGWSKGFIGMHREMQVNPISKRMGPMTVVRMDASVQPGPFRTLLQFLYTGQLDEKEKDLVGLAQIAEVLEMFDLRMMVENIMNKEAFMNQEITKAFHVRKANRIKECLSKGTFSDVTFKLDDGAISAHKPLLICSCEWMAAMFGGSFVESANSEVYLPNINKISMQAVLDYLYTKQLSPNLDLDPLELIALANRFCLPHLVALAEQHAVQELTKAATSGVGIDGEVLSYLELAQFHNAHQLAAWCLHHICTNYNSVCSKFRKEIKSKSADNQEYFERHRWPPVWYLKEEDHYQRVKREREKEDIALNKHRSRRKWCFWNSSPAVA
B7: VENUS-tagged RHOBTB2 (wild-type) (protein, UniProt Q9BYZ6 1-727)
chain: MDSDMDYERPNVETIKCVVVGDNAVGKTRLICARACNATLTQYQLLATHVPTVWAIDQYRVCQEVLERSRDVVDDVSVSLRLWDTFGDHHKDRRFAYGRSDVVVLCFSIANPNSLHHVKTMWYPEIKHFCPRAPVILVGCQLDLRYADLEAVNRARRPLARPIKPNEILPPEKGREVAKELGIPYYETSVVAQFGIKDVFDNAIRAALISRRHLQFWKSHLRNVQRPLLQAPFLPPKPPPPIIVVPDPPSSSEECPAHLLEDPLCADVILVLQERVRIFAHKIYLSTSSSKFYDLFLMDLSEGELGGPSEPGGTHPEDHQGHSDQHHHHHHHHHGRDFLLRAASFDVCESVDEAGGSGPAGLRASTSDGILRGNGTGYLPGRGRVLSSWSRAFVSIQEEMAEDPLTYKSRLMVVVKMDSSIQPGPFRAVLKYLYTGELDENERDLMHIAHIAELLEVFDLRMMVANILNNEAFMNQEITKAFHVRRTNRVKECLAKGTFSDVTFILDDGTISAHKPLLISSCDWMAAMFGGPFVESSTREVVFPYTSKSCMRAVLEYLYTGMFTSSPDLDDMKLIILANRLCLPHLVALTEQYTVTGLMEATQMMVDIDGDVLVFLELAQFHCAYQLADWCLHHICTNYNNVCRKFPRDMKAMSPENQEYFEKHRWPPVWYLKEEDHYQRARKEREKEDYLHLKRQPKRRWLFWNSPSSPSSSAASSSSPSSSSAVV
B8: VENUS-tagged RHOH (wild-type) (protein, UniProt Q15669 1-191)
chain: MLSSIKCVLVGDSAVGKTSLLVRFTSETFPEAYKPTVYENTGVDVFMDGIQISLGLWDTAGNDAFRSIRPLSYQQADVVLMCYSVANHNSFLNLKNKWIGEIRSNLPCTPVLVVATQTDQREMGPHRASCVNAMEGKKLAQDVRAKGYLECSALSNRGVQQVFECAVRTAVNQARRRNRRRLFSINECKIF
B9: VENUS-tagged RASD1-A178V (protein, UniProt Q9Y272 1-281)
chain: MKLAAMIKKMCPSDSELSIPAKNCYRMVILGSSKVGKTAIVSRFLTGRFEDAYTPTIEDFHRKFYSIRGEVYQLDILDTSGNHPFPAMRRLSILTGDVFILVFSLDNRDSFEEVQRLRQQILDTKSCLKNKTKENVDVPLVICGNKGDRDFYREVDQREIEQLVGDDPQRCAYFEISVKKNSSLDQMFRALFAMAKLPSEMSPDLHRKVSVQYCDVLHKKALRNKKLLRAGSGGGGGDPGDAFGIVAPFARRPSVHSDLMYIREKASAGSQAKDKERCVIS
B10: VENUS-tagged, mutationally activated RASL11B (protein, UniProt Q9BPW5 1-248)
chain: MRLIQNMCTIAEYPAPGNAAASDCCVGAAGRRLVKIAVVGAVGVGKTALVVRFLTKRFIGDYERNAGNLYTRQVQIEGETLALQVQDTPGIQVHENSLSCSEQLNRCIRWADAVVIVFSITDYKSYELISQLHQHVQQLHLGTRLPVVVVANKADLLHIKQVDPQLGLQLASMLGCSFYEVSVSENYNDVYSAFHVLCKEVSHKQQPSSTPEKRRTSLIPRPKSPNMQDLKRRFKQALSAKVRTVTSV

What follows are binders tested against T1, full-length FLAG-RASSF4 (human) (assay: co-IP; HEK 293T co-transfected with FLAG-tagged RASSF and VENUS-tagged GTPase; lysis in 20 mM Tris-HCl pH 7.5, 150 mM NaCl, 5 mM MgCl2, 10% glycerol, 1% Triton X-100, 1 mM DTT; anti-FLAG on Protein G Sepharose 1 h, three washes; blot with anti-GFP).

Row | Binder | binding
1 | B1 | no binding

What follows are binders tested against T2, full-length FLAG-tagged RASSF5 (human) in the same assay as above.

Row | Binder | binding
2 | B2 | binds
3 | B3 | binds
4 | B4 | binds
5 | B5 | binds
6 | B1 | no binding

These binders were tested against T3, full-length FLAG-RASSF8 (human) in the same assay as above.

Row | Binder | binding
7 | B6 | binds
8 | B7 | binds
9 | B8 | binds
10 | B9 | binds
11 | B10 | binds
12 | B1 | no binding

What follows are binders tested against T4, full-length FLAG-RASSF3 (human) in the same assay as above.

Row | Binder | binding
13 | B9 | binds
14 | B10 | binds
15 | B1 | no binding
